Reference: PubChem BioAssay AID686979 (National Center for Advancing Translational Sciences (NCATS), 2013)
Several values for one entry are separate records, joined by “and”; a condition that tells them apart may be missing. Identical values can stand only once. The campaign covered roughly 420,000 compounds. About 50,000 (12%) were called active. The inconclusive results got no clear call from the source; some entries with a clear call stand among them for comparison. Calls come from the whole dose curve; as a rule, active = well fitted inhibition curve with a large enough effect; inconclusive = small, poorly fitted or top-dose-only effect; inactive = flat fitted curve, though single readings scatter. A potency beside an inconclusive call is a rough fit, not a confirmed value.

experiment: qHTS for Inhibitors of human tyrosyl-DNA phosphodiesterase 1 (TDP1): qHTS in cells in presence of CPT; details: chicken DT40 Tdp1-/-;hTDP1 cells + 20 nM CPT, ATP luminescence, 48 h; activity change, negative = growth inhibition: at 46.2 µM (top of the series); note: nearly all actives have a fitted effect of over 55% in size
Summary of the method: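 Chicken DT40 Tdp1-/- cells complemented with human TDP1, 400 cells/well, exposed to compounds plus 20 nM camptothecin for at least 48 h at 37 C; viability read as ATP content by CellTiter-Glo luminescence.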
% is set by controls: 0 for no effect and ±100 for the full control effect; potency is the fitted concentration of half-maximal effect; tags give direction and shape of the fitted curve.

Compound | Potency | activity change, negative = growth inhibition
COc1ccc(C2c3sc(=O)[nH]c3SC3C4CCC(C4)C23)cc1OC (centres undefined) | inconclusive: 29.1 µM [inhibitor, single point] | 
NC(=O)NCCCC(=O)NCC(c1ccccc1Cl)c1c[nH]c2ccccc12 (centres undefined) | inconclusive: 23.1 µM [inhibitor, single point] | 
Cc1ccc(-n2nnnc2SCC(=O)N2CC(=O)Nc3ccccc32)cc1 | inconclusive: 14.6 µM [inhibitor, partial curve] | 
CC(C)(C)Cc1c(-c2ccc(Cl)cc2)nc2ccc(Br)cn12 | inconclusive: 29.1 µM [inhibitor, single point] | 
CCOC(=O)C1(CCOc2ccccc2)CCN(Cc2ccc(C#CCCO)cc2)CC1 | active: 18.4 µM | 
Cc1c(C(=O)N(C)C(C)C)sc2ncnc(NCCCN3CCOCC3)c12 |  | inactive: -0.724% [at 9.04 µM]
COc1cc(/C=C/C(=O)NC(C)C2CC3CCC2C3)cc(OC)c1OC (centres undefined) | inconclusive: 20.6 µM [inhibitor, single point] | 
CCn1nnc(NC(=O)C(C)Oc2ccc(Cl)cc2Cl)n1 (centres undefined) | inactive | 
O=C(c1ccccc1)C(CN1CCCCC1)c1ccccc1 (centres undefined) | active: 1.84 µM | 
COC(=O)C1=C(C(=O)OC)[C@@H]2N(C)c3ccc(OC)cc3[C@@]23C[C@@H](C(=O)OC)N(C(=O)CC(C)C)C3=N1 | inconclusive: 25.9 µM [inhibitor, single point] | 
COc1ccc(NC(=O)Nc2cccc(F)c2)c(OC)c1 | inactive | 
Cc1ccc(/C(=C\CN2CCCC2)c2ccccn2)cc1 | inactive and inconclusive: 2.91 µM [inhibitor, full curve, poor fit] | 
COC(=O)c1cc(Br)ccc1N(Cc1cc(OC)cc(OC)c1)S(C)(=O)=O | inconclusive: 22.4 µM [inhibitor, single point] and inconclusive: 18.4 µM [inhibitor, single point] | 
CCCCN(CC)C(=O)Cn1nc(Cc2ccncc2)c2ccccc2c1=O | inactive | 
Cc1ccc(/C=N/NC(=O)CSc2nc3ccccc3n2Cc2ccc(Cl)cc2)o1 | inconclusive: 29.1 µM [inhibitor, single point] | 
CCOc1ccc(OCC)c(NC(=O)Cn2nc(CC)n3c(cc4sccc43)c2=O)c1 | inconclusive: 16.4 µM [inhibitor, single point] | 
COc1ccc(C(=O)c2c(-c3ccc(OC)cc3)oc3ccc(-c4cc(OC)c(OC)c(OC)c4)cc23)cc1 | active: 7.31 µM | 
COCCNc1nnc(SCC(=O)NNC(=O)c2ccco2)s1 | inactive | 
Cc1nc2ccc(S(=O)(=O)N(CC(=O)Nc3cccc(F)c3)Cc3ccccc3)cc2s1 | inconclusive: 20.6 µM [inhibitor, single point] | 
COc1cc(CNC(C)c2ccccc2)cc(Br)c1OCc1ccc(F)cc1 (centres undefined) | inconclusive: 23.1 µM [inhibitor, single point] | 
O=C1[O][Bi][O]c2ccccc21 | inactive | 
CC1CCC(NC(=O)C2CCC(CNc3c(N4CCCCC4)c(=O)c3=O)CC2)CC1 (centres undefined) | inconclusive: 20.6 µM [inhibitor, single point] | 

Compound | Potency | activity change, negative = growth inhibition
O=C(CCc1nc2ccccc2c(=O)[nH]1)Nc1ccccc1N1CCCCC1 | inconclusive: 23.1 µM [inhibitor, single point] | 
CS(=O)(=O)N(Cc1ccc(Cl)cc1)c1ccc(C(=O)NCc2ccccn2)cc1 | inactive | 
Cc1ccc(-c2noc(CN(C(=O)CCN3C(=O)c4ccccc4C3=O)C(C)C)n2)cc1 |  | inconclusive: -31.5% [inhibitor]
COc1ccc(C)cc1S(=O)(=O)N1CCCC(N2CCOCC2)C1 (centres undefined) | inactive | 
O=C(N/N=C/c1cc2c3c(c1O)CCCN3CCC2)c1ccccc1O | active: 3.66 µM | 
CCCC(C)NC(=O)COc1ccc(Sc2ccc(OCC(=O)NC(C)CCC)cc2)cc1 (centres undefined) | active: 8.2 µM | 
C=CCOc1ccccc1CN1CCC(C(=O)Nc2cccc(-c3ccn[nH]3)c2)CC1 | inconclusive: 29.1 µM [inhibitor, single point] | 
CC(CCc1ccccc1)NC(=O)COC(=O)c1ccc(S(C)(=O)=O)c([N+](=O)[O-])c1 (centres undefined) | active: 2.31 µM | 
COc1cc(OC)cc(-c2nc(-c3ccccc3)no2)c1 | inactive | 
CCCOC1CCCN(C(=O)c2cc(COc3c(F)cccc3F)on2)C1 (centres undefined) | inconclusive: 23.1 µM [inhibitor, single point] | 
COc1cccc(-c2cn3nc(C)c(C)nc3n2)c1 | inconclusive: 23.1 µM [inhibitor, single point] | 
COc1ccccc1N(C)S(=O)(=O)c1ccc(C(=O)N2CCCC(C(F)(F)F)C2)cc1 (centres undefined) | inconclusive: 25.9 µM [inhibitor, single point] | 
COc1cccc(-c2cc(C(=O)Nc3cccc(O)c3)no2)c1 | inconclusive: 29.1 µM [inhibitor, single point] | 
COc1cc(SC)ccc1C(=O)Nc1ccc2c(c1)CCC2 | inconclusive: 25.9 µM [inhibitor, single point] | 
CC(C)CCn1c(=O)c2sccc2n2c(CCCC(=O)NCCc3ccccc3)nnc12 | active: 14.6 µM | 
CC(=O)NNS(=O)(=O)c1ccc(-c2cc(C(F)(F)F)n(C)n2)s1 | inactive | 
O=C(c1ccco1)N1CCN(c2ncnc3c2nnn3Cc2ccccc2Cl)CC1 | inconclusive: 16.4 µM [inhibitor, partial curve] | 
NS(=O)(=O)c1ccc(NC(=S)N2CCC(Cc3ccccc3)CC2)cc1 | inactive | 
CCOCCCNC(=S)NCCNc1nc2ccc(C)cc2cc1C#N | inconclusive: 29.1 µM [inhibitor, single point] | 
CN(C)c1nc(NCc2ccccc2)nc(N/N=C/c2ccc3c(c2)OCO3)n1 | inconclusive: 23.1 µM [inhibitor, single point] | 
Cc1noc(/C=C/c2nn(C)cc2Cl)c1[N+](=O)[O-] | active: 20.6 µM | 
O=C(CN1C(=O)NC2(CCCCCC2)C1=O)N1CCN(S(=O)(=O)c2ccc(Cl)cc2)CC1 | inconclusive: 7.31 µM [inhibitor, partial curve, poor fit] | 
